Data published in PubChem BioAssay AID1159614 (National Center for Advancing Translational Sciences (NCATS), 2016).
Hit rate of the full screen: of about 45,000 compounds, about 65 (0.1%) were called active. The call rests on the fitted dose curve; in most records, active means well fitted activation curve with a large enough effect; inconclusive means small, poorly fitted or top-dose-only effect; inactive means no such curve, though single readings can be large or run the other way. This is one part of the list.

The compounds below were run against Galactocerebrosidase (Homo sapiens) (UniProt P54803) (assay: A Novel Cell-Based Assay to Identify Small Molecules for B -Galactocerebrosidase). Settings: 145M-Twi-hGALC-G270D cells (Twitcher mouse brain line with human GALC G270D), HMU-beta-Gal fluorescence, 48 h; series mostly up to 57.5 µM; activation: at the top concentration.
Summary of the method: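 Fluorogenic HMU-b-Gal hydrolysis (0.1 mM final, pH 5.2 citrate-phosphate with 1 mg/mL sodium taurocholate; carbonate stop buffer) measures mutant GALC activity after compound treatment of live 145M-Twi Twitcher brain cells stably carrying human GALC-G270D, with wild-type GALC line alongside; activation sought.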
Further: 0% is about no effect; nearly all actives have a fitted effect of over 65% in size.

Sequence of UniProt P54803 (P54803 whole entry, looked up): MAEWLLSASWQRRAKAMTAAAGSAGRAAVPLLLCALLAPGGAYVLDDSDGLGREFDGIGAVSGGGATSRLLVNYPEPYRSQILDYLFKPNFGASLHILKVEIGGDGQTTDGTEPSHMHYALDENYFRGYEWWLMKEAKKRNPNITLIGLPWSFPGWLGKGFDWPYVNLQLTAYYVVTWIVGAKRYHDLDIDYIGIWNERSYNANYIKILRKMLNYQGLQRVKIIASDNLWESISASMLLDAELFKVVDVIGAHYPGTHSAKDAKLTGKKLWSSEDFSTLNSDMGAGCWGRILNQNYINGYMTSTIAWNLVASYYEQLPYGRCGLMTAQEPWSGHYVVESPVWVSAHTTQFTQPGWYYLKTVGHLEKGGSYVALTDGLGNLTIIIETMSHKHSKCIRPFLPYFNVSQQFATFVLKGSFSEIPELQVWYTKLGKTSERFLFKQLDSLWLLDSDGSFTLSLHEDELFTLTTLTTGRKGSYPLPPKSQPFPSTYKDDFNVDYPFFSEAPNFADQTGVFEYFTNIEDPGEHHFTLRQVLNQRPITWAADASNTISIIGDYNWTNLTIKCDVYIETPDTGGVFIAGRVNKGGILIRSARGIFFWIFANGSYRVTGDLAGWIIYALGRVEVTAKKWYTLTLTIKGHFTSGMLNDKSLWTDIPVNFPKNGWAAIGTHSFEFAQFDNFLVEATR

activation, inactive:
Cc1ccc(C)c(NC(=O)C2CCN(c3nn4c(=O)cc(C)nc4s3)CC2)c1 -3.26%
COc1ccc(-c2nn(C)c3sc(C(=O)N4CCN(c5ccccc5F)CC4)cc23)cc1OC -7.72%
COc1cccc(CNC(=O)C(C)n2ccc3cc(S(=O)(=O)N4CCCCCC4)ccc32)c1 (stereo not given) -41.7%
Cc1ccccc1OCCSc1nc(C)c(Cc2ccccc2)c(=O)[nH]1 1.15%
Cc1cccc2c1-c1sc(C(=O)NCCc3ccc(Cl)cc3)cc1CO2 -14.1%
COc1ccccc1-c1cc(NC(=O)COc2ccccc2Cl)n(-c2ccccc2)n1 -1.25%
Cc1ccc(-c2[nH]c3ccccc3c2SCCNC(=O)c2ccc(S(=O)(=O)N3CCOCC3)cc2)cc1 -9.89%
CCc1ccccc1NC(=O)Cn1c(=O)nc(-c2ccccc2)c2ccccc21 2.92%
COc1ccc(CCNC(=O)CCn2c(=O)c3ccccc3n(Cc3ccc(Cl)cc3)c2=O)cc1OC -6.8%
CCN1C(C(=O)c2ccccc2)=C(OC(=O)C(C)C)c2ccccc2S1(=O)=O -13.3%
COc1ccc(CCNC(=O)CCCCn2c(=O)c3ccccc3n(CC(=O)Nc3ccccc3C)c2=O)cc1OC -10.3%
COc1ccc(S(=O)(=O)c2cn(Cc3ccccc3)c3cc(N4CCCC4)c(F)cc3c2=O)cc1 -2.38%
O=C(CCNS(=O)(=O)c1ccc2c(c1)CCN2C(=O)C1CC1)N1CCN(c2ccc(F)cc2)CC1 -30.3%
Cc1cc(C)cc(NC(=O)CSc2nncn3c2cc2occc23)c1 -19.2%
CCCC(O)c1nc2ccccc2n1CCCCOc1ccc(OC)cc1 (stereo not given) -39.7%
COc1ccc(CNC(=O)C2CCN(c3nc4ccc(C)cc4[nH]3)CC2)cc1 -25.5%
CCn1c2c(c(=O)n3ncc(C(=O)Nc4cccc(Cl)c4C)c13)CN(Cc1ccc(OC)cc1)CC2 -9.02%
CCOC(=O)c1c(C)[nH]c(C)c1S(=O)(=O)N1CCC(C(=O)NCc2ccc(C)cc2)CC1 -0.398%
COc1ccc(CNC(=O)c2nnn(CC(=O)Nc3cc(C)cc(C)c3)c2N)cc1 -26.1%
Cc1ccc(C)c(CN2CCCN(Cc3cc(C)ccc3C)S2(=O)=O)c1 -9%
COc1ccccc1C(=O)NC1(C(F)(F)F)C(=O)Nc2c1c(=O)[nH]c(=O)n2CCc1ccccc1 (stereo not given) -5.84%
CCCn1c(SCC(O)c2cccc(OC)c2)nc2ccccc21 (stereo not given) -2.51%
O=C(Nc1ccc(N2CCN(CCOc3ccc(Cl)cc3)CC2)c(C(=O)O)c1)c1ccc(F)cc1 3.76%
Cc1ccc(S(=O)(=O)C(CNC(=O)C(=O)NCCc2ccccc2)c2ccco2)cc1 (stereo not given) -17.2%
COC(=O)c1ccc(-n2c(/C=C\c3cccc(Br)c3)nc3ccccc3c2=O)cc1 -6.03%
CCc1nc2ccccc2n1CCCCOc1ccccc1C -13.8%
Cc1cnc(NS(=O)(=O)c2ccc(N)cc2)nc1 -17.2%
Cc1cccc(-c2nc(SCC(=O)Nc3cccc(C(F)(F)F)c3)n3[nH]c(=O)cc3n2)c1 -14%
CCOc1ccc(CNC(=O)C2CCCN(S(=O)(=O)c3ccc4c(c3)CCCC(=O)N4)C2)cc1 (stereo not given) -33.7%
CC(C)CCNC(=O)CSc1c2c(nc3ccc(Cl)cc13)CCCC2 -9.61%
Cc1ccc(OCc2nc(-c3ccc(C(=O)N4CCN(c5ccc(Cl)cc5)CC4)cc3)oc2C)cc1 -3.83%
CCCCCCn1c(CNC(=O)c2ccccc2)nc2ccccc21 -18.5%
CCCn1c(=O)sc2cc(NC(=O)c3ccccc3OCC)ccc21 -12.4%
CCOC(=O)C1=C(CN2CCN(CC)CC2)NC(=O)NC1c1ccc(Cl)cc1 (stereo not given) -15.6%
Cc1cc(C(=O)NCc2ccccc2C)c2c(C)nn(-c3cccc(F)c3)c2n1 -5.81%
CCn1c(SCC(=O)c2ccc([N+](=O)[O-])cc2)nnc1-c1ccc(Cl)cc1 -2.63%
CCOC(=O)c1scc(-c2ccc(C)cc2)c1S(=O)(=O)Nc1cc(Cl)ccc1OC -14.5%
CCc1ccc(NC(=O)Cn2ncc3c4ccccc4n(C)c3c2=O)cc1 0.208%
COc1cccc(CNC(=O)Cn2cc3c(n2)-c2c(oc(C(=O)N4CCCC4)c2C)CC3)c1 -0.753%
O=C(CC1N=C2c3ccccc3N=C(SCc3ccc(F)cc3)N2C1=O)NCc1cccs1 (stereo not given) -16.6%
Clc1cccc(-c2csc(-c3nc(-c4ccc(Br)s4)cs3)n2)c1 -10%
CCN(CC)C(=O)c1sc2c(c1C)c(=O)n(-c1ccccc1)c(=O)n2Cc1cc(=O)n2ccccc2n1 -9.08%
CCOc1ccc(NC(=O)c2cc(S(=O)(=O)NC3CCCC3)ccc2F)cc1 -10.2%
CCOC(=O)c1c(S(=O)(=O)NCC(=O)Nc2cccc(CC)c2)c(C)n(C)c1C -12.7%
COC(=O)Cn1c(CN2CCN(c3ccc(OC)cc3)CC2)nc2c1c(=O)[nH]c(=O)n2C -10.6%
CCCCn1cc(S(=O)(=O)c2ccc(OC)cc2)c(=O)c2cc(F)c(F)cc21 -17.2%
CCOc1ccc(S(=O)(=O)N2CCN(c3ccc(Cl)c(Cl)c3)CC2)c2ccccc12 -23.6%
O=C(CCNS(=O)(=O)c1ccc2c(c1)CCN2C(=O)C1CC1)N1CCN(c2ccccc2F)CC1 -38.3%
CCOC(=O)c1c(C)[nH]c(CCC(=O)NCCCN2CCN(c3cc(C)ccc3C)CC2)c1C -9.63%
COc1ccccc1CNC(=O)CN1C(=O)CSc2ccc(S(=O)(=O)N(C)C)cc21 -14.9%
CCc1nc2cccnc2n1-c1ccc(CC(=O)Nc2ccc(C)cc2)cc1 -11.1%
O=C(O)C1CCC1 -11.6%
CCOc1ccc(CNC(=O)c2cnc3sc(N(CC)CC)nn3c2=O)cc1OC -2.05%
O=C(Cn1c(=O)n(-c2ccccc2Cl)c(=O)c2sc3ccccc3c21)N1CCCC1 1.48%
O=C(CCSCc1ccccc1Cl)N1CCN(c2cccc(Cl)c2)CC1 18.4%
COc1ccc(NC(=O)CC2C(=O)N(c3ccc(C)cc3)C(=O)N2C2CCCCC2)cc1 (stereo not given) -16.2%
CCCn1c(CCC(=O)Nc2cc(Cl)c(OC)cc2OC)nc2cccnc21 -9.91%
Cc1ccc(C)c(NC(=O)CSc2ncc3c(n2)-c2ccc(Cl)cc2N(C)S3(=O)=O)c1 -24.9%
CCn1nc(-c2ccccc2)c(-c2ccccc2)c(C(=O)Nc2nc(C)c(C(=O)N(C)C)s2)c1=O -5.29%
CCN(C(=O)CSc1nc2ccccc2n1CC(=O)Nc1ccccc1C)c1ccccc1 -20.5%
COc1cc(CNc2ccc3[nH]c(=O)[nH]c3c2)ccc1OCc1ccccc1F -16.6%
CCOC(=O)c1ccc(OCCN2C[C@H](O)[C@@H](O)[C@H](O)[C@H]2CO)cc1 -16.6%
COc1ccc(-n2ccn(Cc3ccccc3Cl)c(=O)c2=O)cc1OC -21.5%
CC(C)N(Cc1ccccc1)C(=O)CN1C(=O)COc2ccc(S(=O)(=O)NC3CCCC3)cc21 -14.7%
Cc1cc(C)cc(NC(=O)CCc2nnc3n(CC(C)C)c(=O)c4ccccc4n23)c1 -11.8%
Cc1ccc(NC(=O)CSc2nc3nccnc3c(=O)n2CCc2c[nH]c3ccccc23)cc1 10.4%
Nc1cccc2c1CN(C1CCC(=O)NC1=O)C2=O (stereo not given) -5.27%
CCOC(=O)c1cc2c(=O)n3ccccc3nc2n(CCCOC)c1=NC(=O)C(C)(C)Oc1ccc(Cl)cc1 -14.2%
CN(C)c1ccc(C(CNS(=O)(=O)c2ccc(Br)cc2)N2CCCC2)cc1 (stereo not given) -15.4%
CCN(CC)S(=O)(=O)c1ccc(NC(=O)CCc2c(C)nc3cc(-c4ccc(Cl)cc4)nn3c2C)cc1 -44.4%
CC(C)Cc1nn2c(=O)cc(COC(=O)c3ccc4c(c3)OCO4)nc2s1 -6.76%
COc1ccc(Cl)cc1NC(=O)CSc1ccc(-c2sc(C)nc2C)nn1 -12.5%
Cc1ccc(NC(=O)Cn2ncn3c(cc4ccccc43)c2=O)c(C)c1 8.19%
CCOc1ccc(C2CC(=O)n3nc(-c4ccc(C)cc4)nc3S2)cc1 (stereo not given) -16.7%
CCc1ccc(N2C(=O)CC(c3cc(OC)ccc3OC)C3=C2COC3=O)cc1 (stereo not given) 2.03%
CC(=O)Nc1ccc(O)cc1 -3.55%
COc1ccc(CNC(=O)CSc2nc3ccsc3c(=O)n2Cc2ccccc2Cl)cc1 -5.28%
O=C(Nc1ccc2oc(-c3cccnc3)nc2c1)c1ccc(-c2ccc(Cl)cc2)o1 -14.7%
Cc1cc2oc(C(=O)Nc3sc4c(c3C(=O)NCC3CCCO3)CCC4)cc(=O)c2cc1C (stereo not given) -13.7%
CCOc1cc(CNC(=O)c2ccc(C)c(NC(=O)c3nsc4ccccc34)c2)ccc1OC -15.4%
COc1ccccc1CNC(=O)Cc1csc2nc(-c3ccc(Cl)cc3)cn12 -9.81%
CCCCCn1c(=N)c(S(=O)(=O)c2ccccc2)cc2c(=O)n3ccccc3nc21 -5.98%
CCOc1ccc(CCNC(=O)Cn2nc(CC)n3c(cc4sc(CC)cc43)c2=O)cc1OCC 6.16%
CCOc1cc2sc(N3CCC(C(=O)Nc4ccc(C)cc4)CC3)nc2cc1Br -13.4%
CC(NC(=O)c1ccc2c(c1)N(Cc1ccc(Cl)cc1)C(=O)c1ccccc1S2(=O)=O)c1ccccc1 (stereo not given) -9.76%
CCOC(=O)c1sc(NC(=O)c2nc3ncccn3n2)c(C(=O)OC)c1C -3.26%
COc1ccc(CNC(=O)CN(c2ccccc2OC)S(=O)(=O)c2ccc(C)cc2)cc1 -9.01%
CCc1ccc(CSc2nc(-c3ccc(OC)cc3)nc3c2Cc2c(CO)cnc(C)c2O3)cc1 -12.8%
O=S(=O)(NCc1ccccc1)c1ccc(-c2cnc(C3CC3)o2)cc1 -17.3%
O=c1oc2c(CN3CCOCC3)c(O)ccc2cc1-c1ccc(Cl)cc1 -25.4%
CCn1c(=O)c2cc(C(=O)NC3CCCCCC3)sc2c2ccccc21 -37.4%
CC(=O)Nc1nonc1-c1nnc(SCC(=O)Nc2cc(C)cc(C)c2)n1C -12.5%
O=c1c2cccnc2n(Cc2ccccc2F)c(=O)n1Cc1ccccc1Cl -6.89%
Cc1ccc(C)c(N2CCN(C(=O)CN3CCSc4ccc(S(=O)(=O)N(C)C)cc43)CC2)c1 -34.4%
CCCCOC(=O)CSc1nnc(-c2ccccc2)o1 -13.5%
